Assay results reported in paper PMC9911399, “Two distinct binding modes provide the RNA-binding protein RbFox with extraordinary sequence specificity”.
Substitutions are numbered along the chain they refer to; changes in the protein carry UniProt numbers. The list shows a part of the results.

B1: CGUUGAC (DNA:RNA)
RNA: GGGAGACCGGAAUUCAGAUUGUCCCGUUGACUUAAAUCCCGUCGUAGCCACCA
DNA 1: CAATCTGAATTCCGGTCTCCC
DNA 2: TGGTGGCTACGACGGGATT
B2: CCUAUAU (DNA:RNA)
RNA: B1 RNA with G26C, U28A, G29U, C31U
DNA 1: CAATCTGAATTCCGGTCTCCC
DNA 2: TGGTGGCTACGACGGGATT
B3: GAACUUU (DNA:RNA)
RNA: GGGAGACCGGAAUUCAGAUUGUCCGAACUUUUUAAAUCCCGUCGUAGCCACCA
DNA 1: CAATCTGAATTCCGGTCTCCC
DNA 2: TGGTGGCTACGACGGGATT
B4: GAAACGG (DNA:RNA)
RNA: B3 RNA with C28A, U29C, U30G, U31G
DNA 1: CAATCTGAATTCCGGTCTCCC
DNA 2: TGGTGGCTACGACGGGATT
B5: UUCCAGG (DNA:RNA)
RNA: B3 RNA with G25U, A26U, A27C, U29A, U30G, U31G
DNA 1: CAATCTGAATTCCGGTCTCCC
DNA 2: TGGTGGCTACGACGGGATT
B6: UUCGUGG (DNA:RNA)
RNA: B3 RNA with G25U, A26U, A27C, C28G, U30G, U31G
DNA 1: CAATCTGAATTCCGGTCTCCC
DNA 2: TGGTGGCTACGACGGGATT
B7: AACCGUC (DNA:RNA)
RNA: B3 RNA with G25A, A27C, U29G, U31C
DNA 1: CAATCTGAATTCCGGTCTCCC
DNA 2: TGGTGGCTACGACGGGATT
B8: GUUCAUU (DNA:RNA)
RNA: B3 RNA with A26U, A27U, U29A
DNA 1: CAATCTGAATTCCGGTCTCCC
DNA 2: TGGTGGCTACGACGGGATT
B9: CUAUAGG (DNA:RNA)
RNA: B1 RNA with G26U, U27A, G29A, A30G, C31G
DNA 1: CAATCTGAATTCCGGTCTCCC
DNA 2: TGGTGGCTACGACGGGATT

Target: T1, RBFOX1 RRM (Homo sapiens, UniProt Q9NWB1 109-208)
T1 sequence: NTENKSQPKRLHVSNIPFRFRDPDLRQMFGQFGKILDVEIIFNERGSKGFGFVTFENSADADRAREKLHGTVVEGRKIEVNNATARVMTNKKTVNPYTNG
Assay: EMSA; HiTS-Eq, 1 nM pool, 10 min; buffer printed only for the single-RNA assays: 10 mM Tris pH 7.5, 150 mM NaCl, 3.4 mM EDTA, 0.001% NP-40, 30 C
Settings: tags: His6 N-terminal (pET28a); label: 5' 32P
Outline: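 Purified RbFox RRM (wild type or mutant) was equilibrated for 10 min in 50 µL with 1 nM of a 5′-radiolabelled pool of RNA with 7 randomized nucleotides, its flanks annealed to DNA oligonucleotides, across increasing protein concentrations. Free RNA was separated by 8% native PAGE, excised, reverse-transcribed, PCR-barcoded and sequenced on an Illumina HiSeq 2500. Relative association constants came from read-count changes of each variant against the control reaction, normalised to the cognate motif.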

Row | Binder | binding signal
1 | B1 | 0.0168 KA relative to UGCAUGU
2 | B2 | 0.00417 KA relative to UGCAUGU
3 | B3 | 0.00658 KA relative to UGCAUGU
4 | B4 | 0.00878 KA relative to UGCAUGU
5 | B5 | 0.00624 KA relative to UGCAUGU
6 | B6 | 0.0117 KA relative to UGCAUGU
7 | B7 | 0.00529 KA relative to UGCAUGU
8 | B8 | 0.0111 KA relative to UGCAUGU
9 | B9 | 0.00847 KA relative to UGCAUGU
